Assay results reported in FireProtDB (doi:10.1002/prot.20782).

Conditions: Gallus gallus; pH 2.2; 20 °C; GdnHCl; CD; None; HCl 10 mM; reversible: Unknown

Work on “Lysozyme C wild type (no sequence given)” yielded a denaturant m value of 2.4 kcal/mol/M and an unfolding free energy of 23.9 kJ/mol.
